# The other results are listed elsewhere or left out.
# Tests used:
# Test in all cases: glycan array binding signal (z-score within array); higher = stronger binding
# Conditions in all cases: glycan notation: IUPAC condensed, linker removed; mutation: I144G
# [1] = molecular target: Fuc(a1-3)[Gal3S(b1-4)]GlcNAc
# In short: (§1)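 Glycan array data were curated from 3228 arrays in the Consortium for Functional Glycomics database and kept only where the protein sequence was available. Glycan names were converted to IUPAC-condensed notation, and columns mapping to the same glycan were averaged. The binding signal is a within-array Z-score, averaged across arrays of the same protein sequence at different concentrations or buffers and across linkers. Negative Z-scores can be read as non-binding.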
# [2] = molecular target: Fuc(a1-3)[Gal3S(b1-4)]GlcNAc6S
# In short: as §1
# [3] = molecular target: Fuc(a1-3)[GalNAc(b1-4)]GlcNAc
# In short: as §1
# [4] = molecular target: Fuc(a1-3)[GalNAc(b1-4)]GlcNAc6S
# In short: as §1
# [5] = molecular target: Fuc(a1-4)GlcNAc
# In short: as §1
# [6] = molecular target: Fuc(b1-3)GlcNAc
# In short: as §1
# [7] = molecular target: Gal(a1-2)Gal
# In short: as §1
# [8] = molecular target: Gal(a1-3)Gal
# In short: as §1
# [9] = molecular target: Gal(a1-3)Gal(b1-3)GlcNAc
# In short: as §1
# [10] = molecular target: Gal(a1-3)Gal(b1-3)GlcNAc(b1-2)Man
# In short: as §1
# [11] = molecular target: Gal(a1-3)Gal(b1-3)GlcNAc(b1-2)Man(a1-3)[Gal(a1-3)Gal(b1-3)GlcNAc(b1-2)Man(a1-6)]Man(b1-4)GlcNAc(b1-4)GlcNAc
# In short: as §1
# [12] = molecular target: Gal(a1-3)Gal(b1-3)GlcNAc(b1-3)GalNAc
# In short: as §1
# [13] = molecular target: Gal(a1-3)Gal(b1-3)GlcNAc(b1-6)GalNAc
# In short: as §1
# [14] = molecular target: Gal(a1-3)Gal(b1-3)[Fuc(a1-4)]GlcNAc(b1-2)Man(a1-3)[Gal(a1-3)Gal(b1-3)[Fuc(a1-4)]GlcNAc(b1-2)Man(a1-6)]Man(b1-4)GlcNAc(b1-4)GlcNAc
# In short: as §1
# [15] = molecular target: Gal(a1-3)Gal(b1-4)Glc
# In short: as §1
# [16] = molecular target: Gal(a1-3)Gal(b1-4)GlcNAc
# In short: as §1
# [17] = molecular target: Gal(a1-3)Gal(b1-4)GlcNAc(b1-2)Man
# In short: as §1
# [18] = molecular target: Gal(a1-3)Gal(b1-4)GlcNAc(b1-2)Man(a1-3)[Gal(a1-3)Gal(b1-4)GlcNAc(b1-2)Man(a1-6)]Man(b1-4)GlcNAc(b1-4)GlcNAc
# In short: as §1
# [19] = molecular target: Gal(a1-3)Gal(b1-4)GlcNAc(b1-3)GalNAc
# In short: as §1
# [20] = molecular target: Gal(a1-3)Gal(b1-4)GlcNAc(b1-6)GalNAc
# In short: as §1
# [21] = molecular target: Gal(a1-3)Gal(b1-4)[Fuc(a1-3)]GlcNAc
# In short: as §1
# [22] = molecular target: Gal(a1-3)Gal(b1-4)[Fuc(a1-3)]GlcNAc(b1-2)Man(a1-3)[Gal(a1-3)Gal(b1-4)[Fuc(a1-3)]GlcNAc(b1-2)Man(a1-6)]Man(b1-4)GlcNAc(b1-4)GlcNAc
# In short: as §1
# [23] = molecular target: Gal(a1-3)GalNAc
# In short: as §1
# [24] = molecular target: Gal(a1-3)[Gal(a1-4)]Gal(b1-4)GlcNAc
# In short: as §1
# [25] = molecular target: Gal(a1-4)Gal(b1-3)GlcNAc(b1-2)Man(a1-3)[Gal(a1-4)Gal(b1-3)GlcNAc(b1-2)Man(a1-6)]Man(b1-4)GlcNAc(b1-4)GlcNAc
# In short: as §1
# [26] = molecular target: Gal(a1-4)Gal(b1-4)Glc
# In short: as §1
# [27] = molecular target: Gal(a1-4)Gal(b1-4)GlcNAc
# In short: as §1
# [28] = molecular target: Gal(a1-4)Gal(b1-4)GlcNAc(b1-2)Man(a1-3)[Gal(a1-4)Gal(b1-4)GlcNAc(b1-2)Man(a1-6)]Man(b1-4)GlcNAc(b1-4)GlcNAc
# In short: as §1
# [29] = molecular target: Gal(a1-4)Gal(b1-4)GlcNAc(b1-3)Gal(b1-4)Glc
# In short: as §1
# [30] = molecular target: Gal(a1-4)GlcNAc
# In short: as §1
# [31] = molecular target: Gal(a1-6)Glc
# In short: as §1
# [32] = molecular target: Gal(b1-2)Gal
# In short: as §1
# [33] = molecular target: Gal(b1-3)Gal
# In short: as §1
# [34] = molecular target: Gal(b1-3)Gal(b1-4)GlcNAc
# In short: as §1
# [35] = molecular target: Gal(b1-3)GalNAc
# In short: as §1
# [36] = molecular target: Gal(b1-3)GalNAc(a1-3)[Fuc(a1-2)]Gal(b1-4)Glc
# In short: as §1
# [37] = molecular target: Gal(b1-3)GalNAc(a1-3)[Fuc(a1-2)]Gal(b1-4)GlcNAc
# In short: as §1
# [38] = molecular target: Gal(b1-3)GalNAc(b1-3)Gal
# In short: as §1
# [39] = molecular target: Gal(b1-3)GalNAc(b1-3)Gal(a1-4)Gal(b1-4)Glc
# In short: as §1
# [40] = molecular target: Gal(b1-3)GalNAc(b1-4)Gal(b1-4)Glc
# In short: as §1
# [41] = molecular target: Gal(b1-3)GalNAc(b1-4)[Neu5Ac(a2-3)]Gal(b1-4)Glc
# In short: as §1
# [42] = molecular target: Gal(b1-3)GlcNAc
# In short: as §1
# [43] = molecular target: Gal(b1-3)GlcNAc(a1-3)Gal(b1-4)GlcNAc
# In short: as §1
# [44] = molecular target: Gal(b1-3)GlcNAc(a1-6)Gal(b1-4)GlcNAc
# In short: as §1
# [45] = molecular target: Gal(b1-3)GlcNAc(b1-2)Man
# In short: as §1
binder,measurement,setting,value
"rAAL-I144G (Agrocybe aegerita), Q6WY08 (protein) MQGVNIYNISAGTSVDLAAPVTTGDIVTFFSSALNLNAGAGNPNNTTLNLFAENGAYLLHIAFRLQENVIIFNSRQPDGPWLVEQRVSDVANQFAGIDGKAMVTVFDHGDKYQVVINEKTVIQYTKQISGLTLSLSYNATEETSGFSTVVEAVTYTGLALEHHHHHH",glycan array binding signal (z-score),[1],-0.177
same,glycan array binding signal (z-score),[2],-0.051
same,glycan array binding signal (z-score),[3],-0.177
same,glycan array binding signal (z-score),[4],-0.169
same,glycan array binding signal (z-score),[5],-0.097
same,glycan array binding signal (z-score),[6],-0.158
same,glycan array binding signal (z-score),[7],-0.126
same,glycan array binding signal (z-score),[8],-0.059
same,glycan array binding signal (z-score),[9],-0.116
same,glycan array binding signal (z-score),[10],-0.135
same,glycan array binding signal (z-score),[11],-0.179
same,glycan array binding signal (z-score),[12],-0.162
same,glycan array binding signal (z-score),[13],-0.113
same,glycan array binding signal (z-score),[14],-0.159
same,glycan array binding signal (z-score),[15],-0.103
same,glycan array binding signal (z-score),[16],-0.167
same,glycan array binding signal (z-score),[17],-0.065
same,glycan array binding signal (z-score),[18],2.88
same,glycan array binding signal (z-score),[19],-0.147
same,glycan array binding signal (z-score),[20],-0.123
same,glycan array binding signal (z-score),[21],-0.179
same,glycan array binding signal (z-score),[22],0.126
same,glycan array binding signal (z-score),[23],-0.151
same,glycan array binding signal (z-score),[24],-0.115
same,glycan array binding signal (z-score),[25],-0.008
same,glycan array binding signal (z-score),[26],0.015
same,glycan array binding signal (z-score),[27],-0.116
same,glycan array binding signal (z-score),[28],-0.092
same,glycan array binding signal (z-score),[29],-0.026
same,glycan array binding signal (z-score),[30],-0.107
same,glycan array binding signal (z-score),[31],-0.082
same,glycan array binding signal (z-score),[32],-0.179
same,glycan array binding signal (z-score),[33],-0.093
same,glycan array binding signal (z-score),[34],-0.134
same,glycan array binding signal (z-score),[35],-0.118
same,glycan array binding signal (z-score),[36],-0.124
same,glycan array binding signal (z-score),[37],-0.048
same,glycan array binding signal (z-score),[38],-0.186
same,glycan array binding signal (z-score),[39],-0.06
same,glycan array binding signal (z-score),[40],-0.073
same,glycan array binding signal (z-score),[41],-0.191
same,glycan array binding signal (z-score),[42],-0.138
same,glycan array binding signal (z-score),[43],-0.111
same,glycan array binding signal (z-score),[44],-0.037
same,glycan array binding signal (z-score),[45],0.005
